The supplement of paper PMC4604168 (melanoma cell lines)
This is one part of the list. Many values rest on one well or one pass, so single values are uncertain.

System: UACC62
Test: cell count relative to DMSO control; melanoma cells; higher = more viable cells
Details: library dose: standard library concentration; 72 h
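Note: cells treated in 1,536-well plates, then fixed and DAPI-stained, with nuclei counted from automated high-throughput microscope images.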

Question: With `Nc1cccc2c1CN(C1CCC(=O)NC1=O)C2=O` (stereo unspecified) [lenalidomide] + COc1ccc(COc2ccc(Cc3cnc(N)nc3N)cc2OC)cc1 [GW2580] (first compound 5 µM, partner dose 5 µM) as the compound, how does the cell count read?
Answer: The cell count was 79.5%.

Question: How did the cell count turn out when `C#Cc1cccc(Nc2ncnc3cc(OCCOC)c(OCCOC)cc23)c1` [erlotinib] + COc1cc2ncnc(Nc3ccc(Oc4ccccc4)cc3)c2cc1OC [SrcI1] (first compound 4 µM, partner dose 10 µM) was run?
Answer: Its cell count is 43.1%.

Question: `OCc1c[nH]c2ccccc12` [Indole-3-carbinol] + CC1(C)NC(=O)N(c2ccc([N+](=O)[O-])c(C(F)(F)F)c2)C1=O [nilutamide] (first compound 4 µM, partner dose 5 µM) was tested. Which cell count did it give?
Answer: Its cell count is 104%.

Question: How did the cell count turn out when `OCc1c[nH]c2ccccc12` [Indole-3-carbinol] + CN(NC(=O)CC(=O)NN(C)C(=S)c1ccccc1)C(=S)c1ccccc1 [STA4783] (first compound 4 µM, partner dose 0.03 µM) was run?
Answer: Its cell count is 57.8%.

Question: Which cell count does the source give for `Clc1ccc(Nc2nnc(Cc3ccncc3)c3ccccc23)cc1` [vatalanib] + Cc1cc(N2CCOCC2)cc2[nH]c(-c3c(NC[C@@H](O)c4cccc(Cl)c4)cc[nH]c3=O)nc12 [BMS536924] (first compound 10 µM, partner dose 1 µM) here?
Answer: Its cell count is 122%.

Question: `O=C(CCCCCCC(=O)Nc1ccccc1)NO` [vorinostat] + O=C(O)C(=O)Nc1sc2c(c1C(=O)O)CCNC2 [TCS401] (first compound 0.4 µM, partner dose 8.33333 µM) was tested. Which cell count did it give?
Answer: Its cell count is 81.1%.

Question: `Nc1cccc2c1CN(C1CCC(=O)NC1=O)C2=O` (stereo unspecified) [lenalidomide] + CN(C)S(=O)(=O)c1ccc2c(c1)/C(=C/c1cc3c([nH]1)CCCC3)C(=O)N2 [SU6656] (first compound 5 µM, partner dose 2 µM) was tested. Which cell count did it give?
Answer: The cell count was 83.9%.

Question: Which cell count does the source give for `Nc1cccc2c1CN(C1CCC(=O)NC1=O)C2=O` (stereo unspecified) [lenalidomide] + COC(=O)c1sccc1S(=O)(=O)Nc1ccc(Nc2ccccc2)cc1OC [GSK0660] (first compound 5 µM, partner dose 5 µM) here?
Answer: Its cell count is 101%.

Question: With `Nc1cccc2c1CN(C1CCC(=O)NC1=O)C2=O` (stereo unspecified) [lenalidomide] + N#Cc1c(O)c2c(-c3ccc(-c4ccccc4O)cc3)csc2[nH]c1=O [A769662] (first compound 5 µM, partner dose 10 µM) as the compound, how does the cell count read?
Answer: Its cell count is 107%.

Question: For `COCC[n+]1c2c(n(Cc3cnccn3)c1C)C(=O)c1ccccc1C2=O` + COc1ccc(COc2ccc(Cc3cnc(N)nc3N)cc2OC)cc1 [GW2580] (first compound 0.002 µM, partner dose 5 µM), which cell count is on record?
Answer: Its cell count is 77.8%.

Question: For `Cn1c(Nc2ccc(C(F)(F)F)cc2)nc2cc(Oc3ccnc(-c4ncc(C(F)(F)F)[nH]4)c3)ccc21` + Cc1cc(N2CCOCC2)cc2[nH]c(-c3c(NC[C@@H](O)c4cccc(Cl)c4)cc[nH]c3=O)nc12 [BMS536924] (first compound 0.4 µM, partner dose 1 µM), which cell count is on record?
Answer: The cell count was 42%.

Question: How did the cell count turn out when `COCC[n+]1c2c(n(Cc3cnccn3)c1C)C(=O)c1ccccc1C2=O` + Oc1cc(-c2nc(-c3ccccc3)[nH]c2-c2ccncc2)ccc1Cl [L779450] (first compound 0.002 µM, partner dose 1 µM) was run?
Answer: The cell count was 64.2%.

Question: How did the cell count turn out when `C#Cc1cccc(Nc2ncnc3cc(OCCOC)c(OCCOC)cc23)c1` [erlotinib] + O=C1NC(=O)/C(=C/c2ccc(-c3ccc(F)cc3O)o2)S1 [AS252424] (first compound 4 µM, partner dose 5 µM) was run?
Answer: The cell count was 80.7%.

Question: Which cell count does the source give for `Cn1c(Nc2ccc(C(F)(F)F)cc2)nc2cc(Oc3ccnc(-c4ncc(C(F)(F)F)[nH]4)c3)ccc21` + NCC(=O)Nc1ccc(-n2nc(C(F)(F)F)cc2-c2ccc3c(ccc4ccccc43)c2)cc1 [OSU03012] (first compound 0.4 µM, partner dose 5 µM) here?
Answer: The cell count was 51.4%.

Question: With `C#Cc1cccc(Nc2ncnc3cc(OCCOC)c(OCCOC)cc23)c1` [erlotinib] + COc1ccc2c(c1)CCC1C2CCC2(C)C(NCCCCCCN3C(=O)C=CC3=O)CCC12 [U73122] (first compound 4 µM, partner dose 2 µM) as the compound, how does the cell count read?
Answer: The cell count was 42.7%.

Question: Which cell count does the source give for `Clc1ccc(Nc2nnc(Cc3ccncc3)c3ccccc23)cc1` [vatalanib] + OCCn1cc(-c2cnc3nnn(Cc4ccc5ncccc5c4)c3n2)cn1 [PF04217903] (first compound 10 µM, partner dose 5 µM) here?
Answer: The cell count was 76.2%.

Question: For `Nc1cccc2c1CN(C1CCC(=O)NC1=O)C2=O` (stereo unspecified) [lenalidomide] + COc1ccc(-c2ccc3c(N4CCOCC4)nc(N4C[C@@H](C)O[C@@H](C)C4)nc3n2)cc1CO [KU0063794] (first compound 5 µM, partner dose 0.1 µM), which cell count is on record?
Answer: Its cell count is 125%.

Question: How did the cell count turn out when `O=C(CCCCCCC(=O)Nc1ccccc1)NO` [vorinostat] + C[C@@H]1CCN(C(=O)CC#N)C[C@@H]1N(C)c1ncnc2[nH]ccc12 [CP690550] (first compound 0.4 µM, partner dose 5 µM) was run?
Answer: Its cell count is 64.8%.

Question: For `COCC[n+]1c2c(n(Cc3cnccn3)c1C)C(=O)c1ccccc1C2=O` + N#Cc1c(O)c2c(-c3ccc(-c4ccccc4O)cc3)csc2[nH]c1=O [A769662] (first compound 0.002 µM, partner dose 10 µM), which cell count is on record?
Answer: The cell count was 85.7%.

Question: For `Nc1cccc2c1CN(C1CCC(=O)NC1=O)C2=O` (stereo unspecified) [lenalidomide] + O=C(Nc1ccccc1)c1cc([N+](=O)[O-])ccc1Cl [GW9662] (first compound 5 µM, partner dose 10 µM), which cell count is on record?
Answer: The cell count was 80.9%.

Question: How did the cell count turn out when `O=C(CCCCCCC(=O)Nc1ccccc1)NO` [vorinostat] + CC(C)CCN1c2nc(Nc3cc(F)c(O)c(F)c3)ncc2N(C)C(=O)C1C [BID1870] (first compound 0.4 µM, partner dose 1 µM) was run?
Answer: Its cell count is 66%.

Question: How did the cell count turn out when `OCc1c[nH]c2ccccc12` [Indole-3-carbinol] + COCC[n+]1c2c(n(Cc3cnccn3)c1C)C(=O)c1ccccc1C2=O [YM155] (first compound 4 µM, partner dose 0.002 µM) was run?
Answer: Its cell count is 54.5%.

Question: With `COCC[n+]1c2c(n(Cc3cnccn3)c1C)C(=O)c1ccccc1C2=O` + O=c1cc(-c2cccc3c2Sc2ccccc2S3)oc(N2CCOCC2)c1 [KU55933] (first compound 0.002 µM, partner dose 5 µM) as the compound, how does the cell count read?
Answer: The cell count was 51.4%.

Question: Which cell count does the source give for `Nc1cccc2c1CN(C1CCC(=O)NC1=O)C2=O` (stereo unspecified) [lenalidomide] + O=C(CCCCCCC(=O)Nc1ccccc1)NO [vorinostat] (first compound 5 µM, partner dose 0.4 µM) here?
Answer: Its cell count is 66.5%.

Question: For `OCc1c[nH]c2ccccc12` [Indole-3-carbinol] + Cc1cc(N2CCOCC2)cc2[nH]c(-c3c(NC[C@@H](O)c4cccc(Cl)c4)cc[nH]c3=O)nc12 [BMS536924] (first compound 4 µM, partner dose 1 µM), which cell count is on record?
Answer: The cell count was 62.1%.

Question: For `Clc1ccc(Nc2nnc(Cc3ccncc3)c3ccccc23)cc1` [vatalanib] + NC(=O)Nc1cc(-c2cccc(F)c2)sc1C(=O)N[C@H]1CCCNC1 [AZD7762] (first compound 10 µM, partner dose 0.1 µM), which cell count is on record?
Answer: Its cell count is 56.2%.
